# Measured values as given in the supplement of paper PMC8728848.
# This is one part of the list.
# How the values were obtained:
# Experiment in all cases: glycan array binding signal (z-score within array); higher = stronger binding
# Details in all cases: glycan notation: IUPAC condensed, linker removed
# [1] = target: GalNAc(a1-3)GalNAc(b1-3)Gal(a1-4)Gal(b1-4)GlcNAc
# How it was run: (§1)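 Arrays were curated from the Consortium for Functional Glycomics database, 3228 in total, and kept only where the protein sequence was available. Binding is expressed as a within-array Z-score. This score was averaged across arrays of the same protein sequence at different concentrations or buffers and across linkers, and negative values can be read as non-binding.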
# GalNAc(b1-3)Gal = target: GalNAc(b1-3)Gal
# How it was run: as §1
# [2] = target: GalNAc(b1-3)Gal(a1-4)Gal(b1-4)GlcNAc
# How it was run: as §1
# [3] = target: GalNAc(b1-3)Gal(a1-4)Gal(b1-4)GlcNAc(b1-3)Gal(b1-4)Glc
# How it was run: as §1
# [4] = target: GalNAc(b1-3)Gal(a1-6)Gal(b1-4)Glc
# How it was run: as §1
# GalNAc(b1-3)GalNAc = target: GalNAc(b1-3)GalNAc
# How it was run: as §1
# GalNAc(b1-3)GlcNAc = target: GalNAc(b1-3)GlcNAc
# How it was run: as §1
# GalNAc(b1-4)Gal(b1-4)Glc = target: GalNAc(b1-4)Gal(b1-4)Glc
# How it was run: as §1
# GalNAc(b1-4)GlcNAc = target: GalNAc(b1-4)GlcNAc
# How it was run: as §1
# [5] = target: GalNAc(b1-4)GlcNAc(b1-2)Man
# How it was run: as §1
# [6] = target: GalNAc(b1-4)GlcNAc(b1-2)Man(a1-3)[GalNAc(b1-4)GlcNAc(b1-2)Man(a1-6)]Man(b1-4)GlcNAc(b1-4)GlcNAc
# How it was run: as §1
# [7] = target: GalNAc(b1-4)GlcNAc(b1-3)GalNAc(b1-4)GlcNAc
# How it was run: as §1
# GalNAc(b1-4)GlcNAc6S = target: GalNAc(b1-4)GlcNAc6S
# How it was run: as §1
# GalNAc(b1-6)GalNAc = target: GalNAc(b1-6)GalNAc
# How it was run: as §1
# GalNAc3S(b1-4)GlcNAc = target: GalNAc3S(b1-4)GlcNAc
# How it was run: as §1
# GalNAc3S(b1-4)GlcNAc3S = target: GalNAc3S(b1-4)GlcNAc3S
# How it was run: as §1
# [8] = target: GalNAc3S(b1-4)[Fuc(a1-3)]GlcNAc
# How it was run: as §1
# GalNAc4S6S(b1-4)GlcNAc = target: GalNAc4S6S(b1-4)GlcNAc
# How it was run: as §1
# GalNAc6S(b1-4)GlcNAc = target: GalNAc6S(b1-4)GlcNAc
# How it was run: as §1
# Glc(a1-4)Glc = target: Glc(a1-4)Glc
# How it was run: as §1
# [9] = target: Glc(a1-4)Glc(a1-4)Glc(a1-4)Glc
# How it was run: as §1
# Glc(a1-6)Glc(a1-6)Glc = target: Glc(a1-6)Glc(a1-6)Glc
# How it was run: as §1
# [10] = target: Glc(a1-6)Glc(a1-6)Glc(a1-6)Glc
# How it was run: as §1
# Glc(b1-4)Glc = target: Glc(b1-4)Glc
# How it was run: as §1
# Glc(b1-6)Glc = target: Glc(b1-6)Glc
# How it was run: as §1
# GlcA(b1-3)Gal = target: GlcA(b1-3)Gal
# How it was run: as §1
# GlcA(b1-3)GlcNAc = target: GlcA(b1-3)GlcNAc
# How it was run: as §1
# GlcA(b1-6)Gal = target: GlcA(b1-6)Gal
# How it was run: as §1
# [11] = target: GlcA3S(b1-3)Gal(b1-4)GlcNAc(b1-2)Man
# How it was run: as §1
# [12] = target: GlcA3S(b1-3)Gal(b1-4)GlcNAc(b1-3)Gal(b1-4)Glc
# How it was run: as §1
# [13] = target: GlcNAc(a1-3)Gal(b1-4)GlcNAc
# How it was run: as §1
# [14] = target: GlcNAc(a1-4)Gal(b1-3)GlcNAc
# How it was run: as §1
# [15] = target: GlcNAc(a1-4)Gal(b1-4)GalNAc
# How it was run: as §1
# [16] = target: GlcNAc(a1-4)Gal(b1-4)GlcNAc
# How it was run: as §1
# [17] = target: GlcNAc(a1-4)Gal(b1-4)GlcNAc(b1-3)Gal(b1-4)Glc
# How it was run: as §1
# [18] = target: GlcNAc(a1-4)Gal(b1-4)GlcNAc(b1-3)Gal(b1-4)GlcNAc
# How it was run: as §1
# [19] = target: GlcNAc(a1-4)Gal(b1-4)GlcNAc(b1-3)Gal(b1-4)GlcNAc(b1-3)Gal(b1-4)GlcNAc
# How it was run: as §1
# [20] = target: GlcNAc(a1-4)Gal(b1-4)GlcNAc(b1-3)Gal(b1-4)[Fuc(a1-3)]GlcNAc(b1-3)Gal(b1-4)[Fuc(a1-3)]GlcNAc
# How it was run: as §1
binder,measurement,setting,value
"Gal 8 (Mus musculus), Q9JL15 (protein) MGGSHHHHHHGMASMLSLNNLQNIIYNPIIPYVGTITEQLKPGSLIVIRGHVPKDSERFQVDFQLGNSLKPRADVAFHFNPRFKRSSCIVCNTLTQEKWGWEEITYDMPFRKEKSFEIVFMVLKNKFQVAVNGRHVLLYAHRISPEQIDTVGIYGKVNIHSIGFRFSSASALPHTLGDLQSMETSALGLTQINRENIQKPGKLQLSLPFEARLNASMGPGRTVVIKGEVNTNARSFNVDLVAGKTRDIALHLNPRLNVKAFVRNSFLQDAWGEEERNITCFPFSSGMYFEMIIYCDVREFKVAINGVHSLEYKHRFKDLSSIDTLSVDGDIRLLDVRSW",glycan array binding signal (z-score),[1],0.226
same,glycan array binding signal (z-score),GalNAc(b1-3)Gal,0.154
same,glycan array binding signal (z-score),[2],-0.272
same,glycan array binding signal (z-score),[3],0.139
same,glycan array binding signal (z-score),[4],-0.197
same,glycan array binding signal (z-score),GalNAc(b1-3)GalNAc,-0.54
same,glycan array binding signal (z-score),GalNAc(b1-3)GlcNAc,0.185
same,glycan array binding signal (z-score),GalNAc(b1-4)Gal(b1-4)Glc,-0.515
same,glycan array binding signal (z-score),GalNAc(b1-4)GlcNAc,-0.238
same,glycan array binding signal (z-score),[5],0.201
same,glycan array binding signal (z-score),[6],-0.195
same,glycan array binding signal (z-score),[7],0.148
same,glycan array binding signal (z-score),GalNAc(b1-4)GlcNAc6S,0.02
same,glycan array binding signal (z-score),GalNAc(b1-6)GalNAc,-0.491
same,glycan array binding signal (z-score),GalNAc3S(b1-4)GlcNAc,-0.4
same,glycan array binding signal (z-score),GalNAc3S(b1-4)GlcNAc3S,-0.531
same,glycan array binding signal (z-score),[8],-0.526
same,glycan array binding signal (z-score),GalNAc4S6S(b1-4)GlcNAc,-0.514
same,glycan array binding signal (z-score),GalNAc6S(b1-4)GlcNAc,-0.538
same,glycan array binding signal (z-score),Glc(a1-4)Glc,-0.53
same,glycan array binding signal (z-score),[9],-0.531
same,glycan array binding signal (z-score),Glc(a1-6)Glc(a1-6)Glc,-0.539
same,glycan array binding signal (z-score),[10],-0.529
same,glycan array binding signal (z-score),Glc(b1-4)Glc,-0.54
same,glycan array binding signal (z-score),Glc(b1-6)Glc,-0.539
same,glycan array binding signal (z-score),GlcA(b1-3)Gal,-0.537
same,glycan array binding signal (z-score),GlcA(b1-3)GlcNAc,-0.553
same,glycan array binding signal (z-score),GlcA(b1-6)Gal,-0.51
same,glycan array binding signal (z-score),[11],-0.544
same,glycan array binding signal (z-score),[12],-0.425
same,glycan array binding signal (z-score),[13],0.05
same,glycan array binding signal (z-score),[14],-0.53
same,glycan array binding signal (z-score),[15],-0.501
same,glycan array binding signal (z-score),[16],-0.526
same,glycan array binding signal (z-score),[17],0.212
same,glycan array binding signal (z-score),[18],0.045
same,glycan array binding signal (z-score),[19],0.958
same,glycan array binding signal (z-score),[20],-0.375
